Results are given in words; binding and its absence hold for the method and conditions named. Binding seen in cells or lysates may run through a third protein. Some entries that bind do so weakly or less than the wild type. Sequences can lack the tags named with a protein.
How the values were obtained:
Assay in all cases: co-IP; V5H6-tagged FRQ (wild type or mutant) pulled down with V5 agarose from Neurospora lysate (cultures in the light, 25 °C); 50 mM Hepes pH 7.4, 137 mM NaCl, 10% glycerol, 0.4% NP-40; 4 °C, 2 h; Western blot with FRQ, FRH, WC-1 and WC-2 antibodies
[1] = molecular target: T1, FRQ E801A, D802A, E805A, E809A, V5H6-tagged (Neurospora crassa) (UniProt P19970)
T1 sequence: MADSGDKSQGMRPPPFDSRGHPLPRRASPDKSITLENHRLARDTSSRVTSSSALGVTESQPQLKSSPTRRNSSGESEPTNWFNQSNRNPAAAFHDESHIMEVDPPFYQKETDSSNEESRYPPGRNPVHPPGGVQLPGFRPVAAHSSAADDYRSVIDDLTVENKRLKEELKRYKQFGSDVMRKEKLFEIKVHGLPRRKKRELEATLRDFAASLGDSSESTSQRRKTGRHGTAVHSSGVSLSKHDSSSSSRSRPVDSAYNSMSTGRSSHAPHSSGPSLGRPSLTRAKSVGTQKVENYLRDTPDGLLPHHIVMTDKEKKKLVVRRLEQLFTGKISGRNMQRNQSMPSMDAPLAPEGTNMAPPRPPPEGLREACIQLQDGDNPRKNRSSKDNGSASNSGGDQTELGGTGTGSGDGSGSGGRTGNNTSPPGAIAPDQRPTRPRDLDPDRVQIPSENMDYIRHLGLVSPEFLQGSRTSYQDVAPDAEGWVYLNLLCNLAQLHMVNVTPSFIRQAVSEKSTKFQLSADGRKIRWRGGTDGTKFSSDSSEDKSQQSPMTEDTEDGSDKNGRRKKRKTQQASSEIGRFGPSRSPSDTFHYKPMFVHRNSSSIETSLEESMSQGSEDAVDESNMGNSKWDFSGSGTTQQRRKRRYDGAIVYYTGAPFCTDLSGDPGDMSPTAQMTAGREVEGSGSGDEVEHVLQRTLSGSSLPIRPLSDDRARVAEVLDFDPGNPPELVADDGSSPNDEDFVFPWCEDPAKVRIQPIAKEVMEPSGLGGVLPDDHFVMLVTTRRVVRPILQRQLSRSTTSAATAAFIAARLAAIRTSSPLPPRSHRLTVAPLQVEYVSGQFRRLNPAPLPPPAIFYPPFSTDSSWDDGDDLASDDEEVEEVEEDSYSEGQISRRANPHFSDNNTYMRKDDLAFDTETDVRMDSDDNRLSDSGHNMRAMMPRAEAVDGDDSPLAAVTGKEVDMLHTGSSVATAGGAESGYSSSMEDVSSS

Protein sequences, listed by entry. Tags and fused reporters are not part of them.
UniProt Q01371: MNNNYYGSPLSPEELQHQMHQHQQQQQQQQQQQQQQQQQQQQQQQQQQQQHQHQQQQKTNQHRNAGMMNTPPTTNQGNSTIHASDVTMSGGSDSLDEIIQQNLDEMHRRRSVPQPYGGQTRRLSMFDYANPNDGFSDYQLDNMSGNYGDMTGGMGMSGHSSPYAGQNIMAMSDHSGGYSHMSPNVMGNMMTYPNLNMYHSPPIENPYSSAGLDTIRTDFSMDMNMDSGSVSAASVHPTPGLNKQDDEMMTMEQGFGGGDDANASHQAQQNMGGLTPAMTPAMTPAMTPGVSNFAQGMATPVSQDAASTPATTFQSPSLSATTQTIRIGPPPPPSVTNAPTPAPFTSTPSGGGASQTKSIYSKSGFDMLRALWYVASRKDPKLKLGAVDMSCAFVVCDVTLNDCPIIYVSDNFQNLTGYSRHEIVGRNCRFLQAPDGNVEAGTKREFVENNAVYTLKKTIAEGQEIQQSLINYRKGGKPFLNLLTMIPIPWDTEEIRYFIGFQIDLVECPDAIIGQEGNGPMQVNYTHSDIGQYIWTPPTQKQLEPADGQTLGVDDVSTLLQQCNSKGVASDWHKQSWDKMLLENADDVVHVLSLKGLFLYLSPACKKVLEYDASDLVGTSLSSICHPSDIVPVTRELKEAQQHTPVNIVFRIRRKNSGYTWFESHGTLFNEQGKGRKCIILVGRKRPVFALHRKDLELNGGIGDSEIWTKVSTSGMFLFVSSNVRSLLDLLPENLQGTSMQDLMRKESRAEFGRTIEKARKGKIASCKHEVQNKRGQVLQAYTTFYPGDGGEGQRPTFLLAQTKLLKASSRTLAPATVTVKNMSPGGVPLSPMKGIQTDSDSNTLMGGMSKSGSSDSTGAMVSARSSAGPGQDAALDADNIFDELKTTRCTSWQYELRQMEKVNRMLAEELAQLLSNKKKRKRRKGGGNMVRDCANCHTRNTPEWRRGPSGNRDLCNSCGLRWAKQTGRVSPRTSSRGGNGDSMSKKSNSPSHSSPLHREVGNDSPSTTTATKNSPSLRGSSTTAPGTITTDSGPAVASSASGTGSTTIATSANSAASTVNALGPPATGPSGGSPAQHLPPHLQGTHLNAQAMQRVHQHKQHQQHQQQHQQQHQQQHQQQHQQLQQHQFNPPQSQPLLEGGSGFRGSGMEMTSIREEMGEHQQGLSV

[2] = molecular target: T2, FRQ Δ691–732, V5H6-tagged (Neurospora crassa) (UniProt P19970)
T2 sequence: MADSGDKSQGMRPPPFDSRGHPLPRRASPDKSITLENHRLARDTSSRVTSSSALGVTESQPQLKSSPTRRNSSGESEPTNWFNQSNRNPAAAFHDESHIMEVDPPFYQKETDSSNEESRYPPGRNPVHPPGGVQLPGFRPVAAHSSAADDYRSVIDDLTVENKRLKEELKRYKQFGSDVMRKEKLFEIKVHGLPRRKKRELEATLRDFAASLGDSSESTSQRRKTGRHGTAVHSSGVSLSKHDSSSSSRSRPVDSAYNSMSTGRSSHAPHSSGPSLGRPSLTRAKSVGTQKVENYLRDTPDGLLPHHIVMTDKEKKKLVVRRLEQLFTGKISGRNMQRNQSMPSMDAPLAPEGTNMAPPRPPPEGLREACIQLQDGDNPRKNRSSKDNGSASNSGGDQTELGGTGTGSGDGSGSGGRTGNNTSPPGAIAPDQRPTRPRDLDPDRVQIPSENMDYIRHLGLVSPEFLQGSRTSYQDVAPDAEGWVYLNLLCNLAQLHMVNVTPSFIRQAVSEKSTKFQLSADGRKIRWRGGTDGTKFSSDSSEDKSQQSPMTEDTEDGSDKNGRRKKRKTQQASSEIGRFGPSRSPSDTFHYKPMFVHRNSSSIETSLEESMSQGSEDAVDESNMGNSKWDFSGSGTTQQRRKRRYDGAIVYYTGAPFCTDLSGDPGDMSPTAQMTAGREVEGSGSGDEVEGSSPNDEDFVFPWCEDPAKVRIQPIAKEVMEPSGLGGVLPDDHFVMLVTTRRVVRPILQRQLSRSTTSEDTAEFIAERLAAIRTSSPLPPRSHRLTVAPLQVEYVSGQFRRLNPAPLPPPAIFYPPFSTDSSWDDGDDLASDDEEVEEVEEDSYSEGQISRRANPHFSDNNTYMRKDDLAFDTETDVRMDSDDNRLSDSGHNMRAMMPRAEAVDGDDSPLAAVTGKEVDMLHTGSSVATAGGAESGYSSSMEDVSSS

[3] = molecular target: T3, FRQ 629–989, V5H6-tagged (Neurospora crassa) (UniProt P19970)
T3 sequence: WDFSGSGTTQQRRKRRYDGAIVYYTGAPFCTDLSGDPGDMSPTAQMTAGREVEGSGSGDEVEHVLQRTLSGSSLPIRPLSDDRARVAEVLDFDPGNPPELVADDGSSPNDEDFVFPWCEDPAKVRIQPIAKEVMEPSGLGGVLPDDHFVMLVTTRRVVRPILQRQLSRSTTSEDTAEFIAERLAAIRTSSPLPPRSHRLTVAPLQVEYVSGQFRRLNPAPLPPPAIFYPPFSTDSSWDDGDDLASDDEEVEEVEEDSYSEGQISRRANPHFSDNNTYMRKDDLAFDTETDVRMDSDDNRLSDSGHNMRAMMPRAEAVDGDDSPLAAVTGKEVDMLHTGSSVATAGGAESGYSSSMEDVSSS

Substance: White Collar-1 (WC-1) (from UniProt Q01371 1-1167)
- binding [1]: binds
- binding [2]: binds weakly
- binding [3]: no binding

Reference: PMC10320511
